What is called pIC50 is the negative decadic logarithm of the IC50, by convention in mol/L.

pIC50: −log10 of the molar value.

Chain of UniProt O14744 (O14744 whole entry): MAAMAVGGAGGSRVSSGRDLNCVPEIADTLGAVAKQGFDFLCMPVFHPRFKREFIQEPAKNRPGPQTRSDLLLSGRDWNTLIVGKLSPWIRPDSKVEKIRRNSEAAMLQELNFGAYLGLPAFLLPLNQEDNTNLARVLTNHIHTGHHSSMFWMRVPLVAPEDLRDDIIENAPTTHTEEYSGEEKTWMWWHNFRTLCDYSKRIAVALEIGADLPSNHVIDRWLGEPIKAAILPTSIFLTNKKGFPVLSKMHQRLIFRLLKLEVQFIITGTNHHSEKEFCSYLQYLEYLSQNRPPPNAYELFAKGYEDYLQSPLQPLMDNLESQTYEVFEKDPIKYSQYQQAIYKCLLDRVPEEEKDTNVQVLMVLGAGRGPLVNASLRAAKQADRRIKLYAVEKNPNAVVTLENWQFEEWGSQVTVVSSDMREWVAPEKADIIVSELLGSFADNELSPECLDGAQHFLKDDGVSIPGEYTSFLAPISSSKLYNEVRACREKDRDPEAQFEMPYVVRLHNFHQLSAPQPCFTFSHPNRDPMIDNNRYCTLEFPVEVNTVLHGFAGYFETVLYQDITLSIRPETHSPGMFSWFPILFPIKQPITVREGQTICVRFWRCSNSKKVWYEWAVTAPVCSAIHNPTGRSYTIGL
Chain of UniProt O14744 (Q9BQA1 whole entry partner): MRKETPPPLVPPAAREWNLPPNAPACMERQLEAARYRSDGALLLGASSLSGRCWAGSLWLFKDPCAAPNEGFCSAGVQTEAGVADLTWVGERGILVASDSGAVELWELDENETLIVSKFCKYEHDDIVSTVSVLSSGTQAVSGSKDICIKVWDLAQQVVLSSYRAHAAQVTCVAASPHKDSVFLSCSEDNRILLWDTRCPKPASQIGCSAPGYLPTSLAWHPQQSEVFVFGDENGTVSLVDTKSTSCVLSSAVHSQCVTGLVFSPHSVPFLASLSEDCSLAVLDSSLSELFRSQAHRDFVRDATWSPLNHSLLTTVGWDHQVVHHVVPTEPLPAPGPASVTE

For the experiment, the target named is PRMT5/MEP50 Complex (Homo sapiens (Human), UniProt O14744). As to the kind of experiment: PRMT5 inhibition based on TR-FRET assay. It counts as biochemical. The following applies: 32 nM PRMT5:MEP50, 50 nM Histone-H4 peptide, 1 μM SAM. The text has this: PRMT5 Inhibition Based on TR-FRET Assay:
Protein arginine methyltransferase 5 (PRMT5) is a type II arginine methyltransferase that catalyze mono- and symmetric demethylation on arginine residues of histone or non-histone proteins in presence of S-adenosylmethionine (AdoMet or SAM) a cofactor responsible for donating the methyl group. PRMT5 is reported to be overexpressed in several human cancers. To identify compounds that inhibit the PRMT5 and decrease its activity, a TR-FRET based assay has been established. Time-resolved fluorescence resonance energy transfer (TR-FRET) HTS assays are homogeneous proximity assays where the interaction of two dye-labeled binding partners is detected by the energy transfer between a donor and an acceptor dye and the subsequent light emission by the acceptor dye. PRMT5 catalyzes Histone H4 peptide which is biotin tagged to the Lysine amino acid at carboxyl end, in presence of S-adenosyl-1-methionine (SAM) to methylate the peptide. The antibody specific to mono methylated H4 peptide (H4R3) with Ig conjugate binds to the methylated peptide, indirectly binding to the Europium lanthanide. SureLight Allophycocyanin-Streptavidin binds to the biotin tag of the peptide, therefore accepting the energy transferred from the Europium lanthanide. This energy transfer between Europium to SureLight Allophycocyanin is a direct measure of the activity/inhibition of the PRMT5 enzyme.
Assay buffer: 20 mM BICINE (pH 7.6), 25 mM NaCl, 2 mM DTT, 0.01% Tween-20 and 0.01% BSA.
The compound dilutions were prepared as 7.5% DMSO stock solutions in assay buffer. To 2 μL (7.5×) of test compound, 5 μL of PRMT5 enzyme prepared in assay buffer (Final concentration of 32 nM in 15 μL reaction volume) was added and allowed for 30 minutes pre-incubation time in a white polystyrene 384-well plate at room temperature. […] The plates were then read on Victor-3 with Excitation at 340 nm and Emissions collected at 615 and 665 nm in TR-FRET protocol. […]
On the technique in general: Time-resolved FRET reads energy transfer from a long-lived donor to a nearby acceptor.
As for `O=C(NC1CC1)c1ccc(CN2CCN(C[C@H](O)CN3CCc4ccccc4C3)C2=O)nc1` [Example 50, (R)-N-Cyclopropyl-6-((3-(3-(3,4-di-hydroisoquinolin-2(1H)-yl)-2-hydroxypropyl)-2-oxoimidazolidin-1-yl)methyl)nicotinamide], the pIC50 was 7.05.
Compound `O=C(c1cccnc1CN1CCN(C[C@H](O)CN2CCc3ccccc3C2)C1=O)N1CCCCC1` [Example 52, (R)-1-(3-(3,4-dihydroisoquinolin-2(1H)-yl)-2-hydroxypropyl)-3-((3-(piperidine-1-carbonyl)pyridin-2-yl)methyl)imidazolidin-2-one] showed a pIC50 of 5.81.
Compound `O=C(c1ccnc(CN2CCN(C[C@H](O)CN3CCc4ccccc4C3)C2=O)c1)N1CCCCC1` [Example 59, (R)-1-(3-(3,4-dihydroisoquinolin-2(1H)-yl)-2-hydroxypropyl)-3-((4-(piperidine-1-carbonyl)pyridin-2-yl)methyl)imidazolidin-2-one] showed a negative logarithm of the IC50 (pIC50) of 6.24. Compared with the last compound, the pIC50 is 0.43 log units higher.

Values taken from US11365205B2 (Aurigene Discovery Technologies Limited, priority 2018, dated 2022).
